In publication PMC4374383 one finds binding data, which are given here for seven substances.

Amino acid sequences for entries named in this document (tags omitted).
UniProt Q02078: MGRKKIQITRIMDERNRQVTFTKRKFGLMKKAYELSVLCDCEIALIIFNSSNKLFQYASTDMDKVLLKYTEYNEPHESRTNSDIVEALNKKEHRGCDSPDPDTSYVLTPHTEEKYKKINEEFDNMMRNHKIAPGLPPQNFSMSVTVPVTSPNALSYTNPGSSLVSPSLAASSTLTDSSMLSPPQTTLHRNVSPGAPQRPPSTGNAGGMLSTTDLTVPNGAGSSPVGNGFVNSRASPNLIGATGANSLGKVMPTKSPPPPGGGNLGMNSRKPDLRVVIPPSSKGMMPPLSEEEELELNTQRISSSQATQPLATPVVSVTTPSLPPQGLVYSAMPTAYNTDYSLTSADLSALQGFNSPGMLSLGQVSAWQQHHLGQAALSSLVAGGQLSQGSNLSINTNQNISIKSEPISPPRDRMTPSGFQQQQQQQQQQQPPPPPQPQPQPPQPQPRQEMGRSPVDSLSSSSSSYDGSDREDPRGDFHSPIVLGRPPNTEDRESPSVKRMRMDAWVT
UniProt Q9UKV0: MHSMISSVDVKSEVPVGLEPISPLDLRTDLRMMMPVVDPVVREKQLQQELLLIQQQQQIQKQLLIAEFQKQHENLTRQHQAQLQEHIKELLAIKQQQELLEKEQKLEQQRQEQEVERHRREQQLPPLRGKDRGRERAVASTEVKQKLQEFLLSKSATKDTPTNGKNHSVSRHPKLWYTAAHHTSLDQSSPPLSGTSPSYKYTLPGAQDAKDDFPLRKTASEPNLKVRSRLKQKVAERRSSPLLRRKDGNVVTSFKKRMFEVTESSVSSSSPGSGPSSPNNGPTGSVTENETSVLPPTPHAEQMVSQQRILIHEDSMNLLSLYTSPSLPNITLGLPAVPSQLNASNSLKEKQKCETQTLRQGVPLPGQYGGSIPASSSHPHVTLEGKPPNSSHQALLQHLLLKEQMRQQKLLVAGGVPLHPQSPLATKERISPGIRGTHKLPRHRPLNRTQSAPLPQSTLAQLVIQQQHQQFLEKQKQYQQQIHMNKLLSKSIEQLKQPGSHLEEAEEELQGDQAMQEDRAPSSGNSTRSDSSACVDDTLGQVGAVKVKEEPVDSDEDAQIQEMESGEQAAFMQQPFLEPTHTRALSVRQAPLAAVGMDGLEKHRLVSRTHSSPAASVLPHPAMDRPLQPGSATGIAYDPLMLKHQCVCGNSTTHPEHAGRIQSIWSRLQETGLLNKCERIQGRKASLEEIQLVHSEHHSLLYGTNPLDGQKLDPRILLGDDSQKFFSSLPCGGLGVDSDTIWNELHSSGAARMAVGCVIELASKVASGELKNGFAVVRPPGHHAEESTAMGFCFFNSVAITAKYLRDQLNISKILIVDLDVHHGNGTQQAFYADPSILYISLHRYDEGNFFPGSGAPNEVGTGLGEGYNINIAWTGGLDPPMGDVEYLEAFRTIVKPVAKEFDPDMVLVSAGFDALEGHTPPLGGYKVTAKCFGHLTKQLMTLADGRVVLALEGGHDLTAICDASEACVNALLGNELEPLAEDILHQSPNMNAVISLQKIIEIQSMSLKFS
UniProt Q92831: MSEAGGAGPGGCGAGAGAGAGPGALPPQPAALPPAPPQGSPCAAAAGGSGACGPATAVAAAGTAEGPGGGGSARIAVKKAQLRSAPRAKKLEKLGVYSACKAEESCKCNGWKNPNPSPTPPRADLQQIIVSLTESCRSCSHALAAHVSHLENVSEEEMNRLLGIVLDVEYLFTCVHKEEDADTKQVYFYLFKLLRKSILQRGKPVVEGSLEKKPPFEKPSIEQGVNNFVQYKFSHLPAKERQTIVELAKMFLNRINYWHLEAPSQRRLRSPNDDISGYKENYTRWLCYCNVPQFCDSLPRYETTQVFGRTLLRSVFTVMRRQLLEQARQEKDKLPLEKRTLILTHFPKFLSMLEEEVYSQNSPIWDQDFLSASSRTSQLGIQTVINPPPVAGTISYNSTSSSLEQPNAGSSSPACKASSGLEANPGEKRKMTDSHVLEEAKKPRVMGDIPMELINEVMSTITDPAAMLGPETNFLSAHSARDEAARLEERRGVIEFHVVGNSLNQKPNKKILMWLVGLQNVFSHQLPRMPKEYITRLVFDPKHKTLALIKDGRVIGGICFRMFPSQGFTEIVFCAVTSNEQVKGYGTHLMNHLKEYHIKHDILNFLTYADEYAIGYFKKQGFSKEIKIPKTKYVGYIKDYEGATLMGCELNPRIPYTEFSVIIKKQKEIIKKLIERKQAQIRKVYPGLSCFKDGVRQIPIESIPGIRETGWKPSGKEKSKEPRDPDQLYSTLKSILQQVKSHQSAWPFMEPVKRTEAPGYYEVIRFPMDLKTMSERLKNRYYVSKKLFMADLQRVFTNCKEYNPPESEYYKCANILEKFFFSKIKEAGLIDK
UniProt P16220: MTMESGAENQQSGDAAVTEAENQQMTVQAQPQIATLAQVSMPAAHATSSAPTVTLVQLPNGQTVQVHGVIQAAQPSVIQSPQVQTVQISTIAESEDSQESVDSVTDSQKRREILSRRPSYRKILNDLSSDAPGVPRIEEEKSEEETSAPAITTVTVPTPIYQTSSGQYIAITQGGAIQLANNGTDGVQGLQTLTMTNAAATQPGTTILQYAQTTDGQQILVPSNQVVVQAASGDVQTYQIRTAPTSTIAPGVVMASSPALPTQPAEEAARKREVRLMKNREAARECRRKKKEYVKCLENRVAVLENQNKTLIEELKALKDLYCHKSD

For assay [1], the target named is HTLV-1 Tax (viral transactivator protein) (HTLV-1) (UniProt P03409). Put plainly: co-IP; immunoprecipitation with 2 ug anti-Tax antibody (LT-4) from sonicated lysates of Jurkat, MT-2, control and HTLV-infected primary CD4+ T cells; lysis buffer 25 mM Tris-HCl pH 7.4, 150 mM NaCl, 1% NP-40, 1 mM EDTA, 5% glycerol; protein A/G magnetic beads; Western blot. A general note: A western blot detects proteins with antibodies after separation by electrophoresis.

For assay [2], the target named is Myocyte enhancer factor-2A (MEF-2A) (human (endogenous in Jurkat, MT-2, C8166, 293 T and primary CD4+ T cells)) (UniProt Q02078). Put plainly: co-IP; immunoprecipitation with 2 ug anti-MEF-2A antibody (Santa Cruz) overnight at 4°C from sonicated lysates of Jurkat, MT-2, control and HTLV-infected primary CD4+ T cells; lysis buffer 25 mM Tris-HCl pH 7.4, 150 mM NaCl, 1% NP-40, 1 mM EDTA, 5% glycerol; protein A/G magnetic beads; Western blot.

For assay [3], the target named is HTLV-1 Tax (viral transactivator protein) (HTLV-1) (UniProt P03409). Put plainly: co-IP; IgG control or Tax immunoprecipitation from whole cell lysates of C8166 cells, immunoblotting.
The next assay addresses FLAG-Tax (HTLV-1) (UniProt P03409). Put plainly: co-IP; 293 T cells transfected with mock or FLAG-Tax plasmid for 36 hr; precipitation with anti-FLAG antibody, immunoblotting with anti-MEF-2 antibody.

These are yes or no findings as the source states them, for the method shown. In cells and extracts the contact can be indirect. Some results given as binding are weak or reduced against the parent protein; the word gives no strength.

On to “CREB-binding protein (CBP) (from UniProt Q92793 1-2442)”, for which, in assay [1], the binding entry is listed as “binds”.

For the substance “HTLV-1 Tax (viral transactivator protein) (from UniProt P03409 1-353)”, in assay [2], the binding entry is on record as “binds”. For “Histone deacetylase 9 (HDAC9) (from UniProt Q9UKV0 1-1011)”, the values for the binding entry in assay [1] and in assay [2] were “no binding” and “binds”, respectively. With “Myocyte enhancer factor-2A (MEF-2A) (from UniProt Q02078 1-507)”, the binding entry (in assay [1]; in assay [3]; with FLAG-Tax (HTLV-1)) was “binds” in each case.

As for p300 (from UniProt Q09472 1-2414), the binding result in assay [1] is “binds”. Consider “p300/CBP associated factor (p/CAF) (from UniProt Q92831 1-832)”, for which, in assay [1], the binding result is “binds”. “phosphorylated cAMP response element-binding protein (pCREB) (from UniProt P16220 1-327)”: the binding result in assay [1] and in assay [2] was “binds” each time.
